The list shows a part of the results, in another mix than the full data. The list includes weakly bound sequences.
Experiments:
GST-Co-NF-kB = target: T1, GST-Co-NF-kB (UniProt F1ARL5); assay: protein-binding microarray (PBM); details: PBM: ~300 nM protein, 6 mM HEPES pH 7.8, 80 mM KCl, 0.5 mM EDTA, 0.5 mM EGTA, 6% glycerol, 35 ng/ul poly-dIdC, 1% milk, 1 h, room temperature; high values mean tight binding; double strand, one strand shown
T1 sequence: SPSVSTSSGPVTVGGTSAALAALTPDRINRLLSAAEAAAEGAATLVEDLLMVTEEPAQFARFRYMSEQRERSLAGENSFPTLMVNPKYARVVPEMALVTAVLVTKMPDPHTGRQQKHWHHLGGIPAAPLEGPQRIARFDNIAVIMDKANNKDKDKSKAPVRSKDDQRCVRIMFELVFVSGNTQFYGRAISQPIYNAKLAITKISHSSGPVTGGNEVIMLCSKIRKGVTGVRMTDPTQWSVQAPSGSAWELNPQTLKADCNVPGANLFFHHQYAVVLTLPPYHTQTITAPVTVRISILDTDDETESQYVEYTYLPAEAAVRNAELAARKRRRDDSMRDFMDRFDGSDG

GST-Dm-Relish = target: T2, GST-Dm-Relish (UniProt Q94527); assay: protein-binding microarray (PBM); details: PBM: ~300 nM protein, 6 mM HEPES pH 7.8, 80 mM KCl, 0.5 mM EDTA, 0.5 mM EGTA, 6% glycerol, 35 ng/ul poly-dIdC, 1% milk, 1 h, room temperature; Ap Aiptasia and Nv Nematostella (sea anemones) / Co Capsaspora / Aq Amphimedon (sponge) / Dm Drosophila / Hu human; RHD is the Rel homology domain; high values mean tight binding; most listed sequences are background and not binding sites; double strand, one strand shown
T2 sequence: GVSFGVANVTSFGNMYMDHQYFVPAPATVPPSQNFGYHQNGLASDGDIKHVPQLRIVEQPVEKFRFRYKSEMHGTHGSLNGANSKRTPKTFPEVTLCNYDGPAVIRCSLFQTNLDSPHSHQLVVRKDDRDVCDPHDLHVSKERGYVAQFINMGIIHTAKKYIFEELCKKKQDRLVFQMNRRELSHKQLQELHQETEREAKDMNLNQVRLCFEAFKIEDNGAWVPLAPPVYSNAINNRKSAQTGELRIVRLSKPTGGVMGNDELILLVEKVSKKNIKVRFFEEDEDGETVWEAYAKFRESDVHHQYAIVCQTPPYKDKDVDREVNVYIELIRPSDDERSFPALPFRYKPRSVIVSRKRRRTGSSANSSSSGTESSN

With “CCGATTAACATCATGGGGAAAAATGATGTTAATCGGGTCTTGATTCGCTTGACGCTGCTG” as the sequence, how does the binding signal (GST-Co-NF-kB) read?
The binding signal was 9.78 z-score.

What about the binding signal (GST-Dm-Relish) of the same sequence?
The binding signal was 2.39 z-score.

How did the binding signal (GST-Co-NF-kB) turn out when “CCGATTAACATCAGGAAGGTCCCTGATGTTAATCGGGTCTTGATTCGCTTGACGCTGCTG” was run?
The binding signal was 0.0241 z-score.

What about the binding signal (GST-Dm-Relish) of the same sequence?
The binding signal was 1.64 z-score.

Which binding signal (GST-Co-NF-kB) does the source give for “CCGATTAACATCAGAGTATTCCCTGATGTTAATCGGGTCTTGATTCGCTTGACGCTGCTG” here?
The binding signal was 2.71 z-score.

What about the binding signal (GST-Dm-Relish) of the same sequence?
The binding signal was 2.22 z-score.

“CCGATTAACATCAAATTTCCCATTGATGTTAATCGGGTCTTGATTCGCTTGACGCTGCTG” was tested. Which binding signal (GST-Co-NF-kB) did it give?
Its binding signal is 3.32 z-score.

And the binding signal (GST-Dm-Relish)?
Its binding signal is 2.68 z-score.

“CCGATTAACATCACGGGGCCCCCTGATGTTAATCGGGTCTTGATTCGCTTGACGCTGCTG” was tested. Which binding signal (GST-Co-NF-kB) did it give?
Its binding signal is 1.49 z-score.

And the binding signal (GST-Dm-Relish)?
The binding signal was 3.89 z-score.

With “CCGATTAACATCATCAGGGAAAATGATGTTAATCGGGTCTTGATTCGCTTGACGCTGCTG” as the sequence, how does the binding signal (GST-Co-NF-kB) read?
The binding signal was 2.95 z-score.

And the binding signal (GST-Dm-Relish)?
The binding signal was 0.679 z-score.

For “CCGATTAACATCAATTTCCCCCGTGATGTTAATCGGGTCTTGATTCGCTTGACGCTGCTG”, which binding signal (GST-Co-NF-kB) is on record?
Its binding signal is 12.3 z-score.

And the binding signal (GST-Dm-Relish)?
The binding signal was 5.65 z-score.

What does the source list for “CCGATTAACATCAGACGTGGGAATGATGTTAATCGGGTCTTGATTCGCTTGACGCTGCTG”?
binding signal (GST-Co-NF-kB): 2.5 z-score; binding signal (GST-Dm-Relish): 0.928 z-score

“CCGATTAACATCAAAGATTTCCCTGATGTTAATCGGGTCTTGATTCGCTTGACGCTGCTG” was tested. Which binding signal (GST-Co-NF-kB) did it give?
The binding signal was 4.84 z-score.

What about the binding signal (GST-Dm-Relish) of the same sequence?
The binding signal was 2.9 z-score.

With “CCGATTAACATCAAATCTCCCCCTGATGTTAATCGGGTCTTGATTCGCTTGACGCTGCTG” as the sequence, how does the binding signal (GST-Co-NF-kB) read?
The binding signal was 10.1 z-score.

What about the binding signal (GST-Dm-Relish) of the same sequence?
The binding signal was 4.14 z-score.

Which results are given for “CCGATTAACATCAAGGGGGTACCTGATGTTAATCGGGTCTTGATTCGCTTGACGCTGCTG”?
binding signal (GST-Co-NF-kB): 2.65 z-score; binding signal (GST-Dm-Relish): 3.15 z-score

Which results are given for “CCGATTAACATCACGGTATTCCCTGATGTTAATCGGGTCTTGATTCGCTTGACGCTGCTG”?
binding signal (GST-Co-NF-kB): 3.34 z-score; binding signal (GST-Dm-Relish): 6.53 z-score

Which results are given for “CCGATTAACATCAGGGTACTACCTGATGTTAATCGGGTCTTGATTCGCTTGACGCTGCTG”?
binding signal (GST-Co-NF-kB): 0.683 z-score; binding signal (GST-Dm-Relish): 1.62 z-score

How did the binding signal (GST-Co-NF-kB) turn out when “CCGATTAACATCAGGGTAAGTACTGATGTTAATCGGGTCTTGATTCGCTTGACGCTGCTG” was run?
Its binding signal is 1.85 z-score.

And the binding signal (GST-Dm-Relish)?
Its binding signal is 7.08 z-score.

“CCGATTAACATCAGGGCATGCCCTGATGTTAATCGGGTCTTGATTCGCTTGACGCTGCTG” was tested. Which binding signal (GST-Co-NF-kB) did it give?
The binding signal was -0.315 z-score.

What about the binding signal (GST-Dm-Relish) of the same sequence?
Its binding signal is 0.452 z-score.

How did the binding signal (GST-Co-NF-kB) turn out when “CCGATTAACATCAAGGGGGGGGATGATGTTAATCGGGTCTTGATTCGCTTGACGCTGCTG” was run?
Its binding signal is 7.64 z-score.

What about the binding signal (GST-Dm-Relish) of the same sequence?
The binding signal was 5.31 z-score.

Which binding signal (GST-Co-NF-kB) does the source give for “CCGATTAACATCATCCCTCCCCATGATGTTAATCGGGTCTTGATTCGCTTGACGCTGCTG” here?
Its binding signal is 3.09 z-score.

What about the binding signal (GST-Dm-Relish) of the same sequence?
Its binding signal is 0.966 z-score.

What does the source list for “CCGATTAACATCAGGGAAACACATGATGTTAATCGGGTCTTGATTCGCTTGACGCTGCTG”?
binding signal (GST-Co-NF-kB): 3.05 z-score; binding signal (GST-Dm-Relish): 6.06 z-score

For “CCGATTAACATCACGCAAATCCCTGATGTTAATCGGGTCTTGATTCGCTTGACGCTGCTG”, which binding signal (GST-Co-NF-kB) is on record?
Its binding signal is 0.775 z-score.

And the binding signal (GST-Dm-Relish)?
The binding signal was 1.24 z-score.

With “CCGATTAACATCACGGGATTTCGTGATGTTAATCGGGTCTTGATTCGCTTGACGCTGCTG” as the sequence, how does the binding signal (GST-Co-NF-kB) read?
The binding signal was 0.549 z-score.

What about the binding signal (GST-Dm-Relish) of the same sequence?
The binding signal was 3.68 z-score.

Which results are given for “CCGATTAACATCAGTCCCTAAGCTGATGTTAATCGGGTCTTGATTCGCTTGACGCTGCTG”?
binding signal (GST-Co-NF-kB): -0.173 z-score; binding signal (GST-Dm-Relish): 0.154 z-score

Which binding signal (GST-Co-NF-kB) does the source give for “CCGATTAACATCAGGGCAAACCCTGATGTTAATCGGGTCTTGATTCGCTTGACGCTGCTG” here?
Its binding signal is 0.543 z-score.

And the binding signal (GST-Dm-Relish)?
The binding signal was 1.14 z-score.

Which results are given for “CCGATTAACATCAGGGAAAGGAATGATGTTAATCGGGTCTTGATTCGCTTGACGCTGCTG”?
binding signal (GST-Co-NF-kB): 1.48 z-score; binding signal (GST-Dm-Relish): 0.439 z-score

How did the binding signal (GST-Co-NF-kB) turn out when “CCGATTAACATCAGGCATGCCCCTGATGTTAATCGGGTCTTGATTCGCTTGACGCTGCTG” was run?
Its binding signal is 0.827 z-score.

And the binding signal (GST-Dm-Relish)?
Its binding signal is 0.942 z-score.

Which results are given for “CCGATTAACATCAGAAAAATCCCTGATGTTAATCGGGTCTTGATTCGCTTGACGCTGCTG”?
binding signal (GST-Co-NF-kB): 2.27 z-score; binding signal (GST-Dm-Relish): 9.03 z-score

How did the binding signal (GST-Co-NF-kB) turn out when “CCGATTAACATCAGGAGCTTCCCTGATGTTAATCGGGTCTTGATTCGCTTGACGCTGCTG” was run?
Its binding signal is 0.697 z-score.

What about the binding signal (GST-Dm-Relish) of the same sequence?
The binding signal was 0.983 z-score.

How did the binding signal (GST-Co-NF-kB) turn out when “CCGATTAACATCAGGGGATTCCATGATGTTAATCGGGTCTTGATTCGCTTGACGCTGCTG” was run?
Its binding signal is 3.19 z-score.

What about the binding signal (GST-Dm-Relish) of the same sequence?
The binding signal was 10 z-score.

Which results are given for “CCGATTAACATCAAAATCCCCCGTGATGTTAATCGGGTCTTGATTCGCTTGACGCTGCTG”?
binding signal (GST-Co-NF-kB): 8.56 z-score; binding signal (GST-Dm-Relish): 9.89 z-score

For “CCGATTAACATCAGGAACCCCCCTGATGTTAATCGGGTCTTGATTCGCTTGACGCTGCTG”, which binding signal (GST-Co-NF-kB) is on record?
Its binding signal is 3.38 z-score.

What about the binding signal (GST-Dm-Relish) of the same sequence?
Its binding signal is 9.74 z-score.

Which binding signal (GST-Co-NF-kB) does the source give for “CCGATTAACATCAGGGGATGAATTGATGTTAATCGGGTCTTGATTCGCTTGACGCTGCTG” here?
The binding signal was 4.99 z-score.

What about the binding signal (GST-Dm-Relish) of the same sequence?
The binding signal was 2.75 z-score.
